This is one part of the list.

The test system of one test is HSkMC. The experiment in a line: cytotoxicity call (relative viability < 0.9). Conditions: 10 µM.
In a further test the test system is HepG2. The test can be described thus: cytotoxicity call (relative viability < 0.9). Conditions: 10 µM.
The next test relates to S. aureus RN4220. The experiment in a line: growth inhibition call (relative growth <= 0.2). Conditions: 50 µM.

On to `CN(C)CCN(Cc1cccs1)c1ccccn1.Cl`, for which the cytotoxicity call with HSkMC and with HepG2 was “inactive” each time. The growth inhibition call in the test on S. aureus RN4220 is “inactive”.

As to `O=c1[nH]c(=S)nc2n(CCO)[nH]cc1-2`, the cytotoxicity call with HSkMC and in the test with HepG2 was “inactive” throughout. Moreover, the growth inhibition call with S. aureus RN4220 is “inactive”.

In the case of `O=C(C[C@H]1CC[C@@H](NC(=O)c2ccc(F)cc2)[C@@H](CO)O1)NCc1ccncn1`, the cytotoxicity call in the test with HSkMC and with HepG2 was “inactive” throughout. For the same compound, the growth inhibition call with S. aureus RN4220 is “inactive”.

As for `NC(=O)c1cc(Cl)ccn1`, the cytotoxicity call in the test with HSkMC and in the test on HepG2 was “inactive” each time. Further, in the test with S. aureus RN4220, the growth inhibition call is “inactive”.

For `CN(C)CCCNC(=O)C[C@H]1CC[C@@H]2[C@H](COc3ccc(NC(=O)c4cccc(F)c4)cc3C(=O)N2C)O1`, the cytotoxicity call in the test with HSkMC and in the test on HepG2 was “inactive” in each case. In the test with S. aureus RN4220, the growth inhibition call is “inactive”.

Consider `Nc1ccc(-n2cccc2)cc1Cl`, for which the cytotoxicity call in the test on HSkMC and in the test on HepG2 was “inactive” each time. Moreover, the growth inhibition call with S. aureus RN4220 was “inactive”.

With `COc1ccc(S(=O)(=O)N(C)C[C@H]2Oc3ccc(NC(=O)c4ccncc4)cc3C(=O)N([C@@H](C)CO)C[C@H]2C)cc1`, the cytotoxicity call with HSkMC and with HepG2 was “inactive” each time. For the same compound, in the test with S. aureus RN4220, the growth inhibition call was “inactive”.

For `CCCCn1c(-c2ccccc2)nc(-c2ccccc2)c1CN(Cc1ccc2c(c1)OCO2)Cc1ccc2c(c1)OCO2`, the cytotoxicity call in the test with HSkMC and in the test on HepG2 was “inactive” each time. In the test on S. aureus RN4220, the growth inhibition call was “inactive”.

As for `Cc1ccc(S(=O)(=O)N[C@H]2CC[C@@H](CCNC(=O)CN3CCOCC3)O[C@H]2CO)cc1`, the cytotoxicity call in the test with HSkMC and in the test on HepG2 was “inactive” in each case. Besides, the growth inhibition call with S. aureus RN4220 was “inactive”.

On to `Cc1noc(C)c1NC(=O)Nc1cccc2c1O[C@H](CN(C)C(=O)Nc1cccc3ccccc13)[C@H](C)CN([C@H](C)CO)C2=O`, for which the cytotoxicity call in the test on HSkMC and in the test on HepG2 was “inactive” each time. Also, the growth inhibition call with S. aureus RN4220 was “inactive”.

`COc1ccc(S(=O)(=O)Nc2cccc3c2O[C@@H](CN(C)C(=O)Nc2c(C)noc2C)[C@@H](C)CN([C@H](C)CO)C3=O)cc1`: the cytotoxicity call in the test with HSkMC and in the test on HepG2 was “inactive” each time. The growth inhibition call in the test with S. aureus RN4220 is “inactive”.

As to `COc1ccc(CN(C)C[C@H]2OCCCC[C@@H](C)Oc3ccc(NC(=O)NC4CCCCC4)cc3C(=O)N([C@@H](C)CO)C[C@H]2C)cc1`, the cytotoxicity call with HSkMC and in the test on HepG2 was “inactive” throughout. In addition, the growth inhibition call in the test with S. aureus RN4220 was “inactive”.

In the case of `C[C@@H]1CN([C@@H](C)CO)C(=O)Cc2cc(NC(=O)CCC(F)(F)F)ccc2O[C@H]1CN(C)C(=O)Nc1cccc2ccccc12`, the cytotoxicity call with HSkMC and in the test with HepG2 was “inactive” each time. Moreover, the growth inhibition call with S. aureus RN4220 is “inactive”.

In the case of `C[C@H]1CN([C@@H](C)CO)C(=O)Cc2cc(NC(=O)Nc3ccccc3)ccc2O[C@H]1CN(C)C(=O)Nc1ccc(C(F)(F)F)cc1`, the cytotoxicity call with HSkMC and with HepG2 was “inactive” in each case. In addition, the growth inhibition call in the test on S. aureus RN4220 is “inactive”.

`O=C(C[C@H]1CC[C@H](NC(=O)C2CC2)[C@@H](CO)O1)NCCCN1CCOCC1`: the cytotoxicity call with HSkMC and in the test on HepG2 was “inactive” throughout. Also, in the test with S. aureus RN4220, the growth inhibition call is “inactive”.

As for `C[C@H]1CCCCO[C@H](CN(C)Cc2ccc(C(F)(F)F)cc2)[C@@H](C)CN([C@@H](C)CO)C(=O)c2cc(NC(=O)Nc3ccc4c(c3)OCO4)ccc2O1`, the cytotoxicity call with HSkMC was “inactive”. Moreover, the cytotoxicity call with HepG2 is “active”. Further, in the test on S. aureus RN4220, the growth inhibition call was “inactive”.

For the compound `COc1ccc(S(=O)(=O)Nc2cccc3c2O[C@H](CN(C)S(C)(=O)=O)[C@H](C)CN([C@@H](C)CO)C3=O)cc1`, the cytotoxicity call in the test on HSkMC and in the test on HepG2 was “inactive” throughout. In addition, the growth inhibition call in the test on S. aureus RN4220 was “inactive”.

Regarding `COc1ccc(NC(=O)N2C[C@@H](O)COC[C@H]3O[C@@H](CC(=O)NC4Cc5ccccc5C4)CC[C@@H]32)cc1`, the cytotoxicity call in the test on HSkMC and with HepG2 was “inactive” in each case. Also, the growth inhibition call with S. aureus RN4220 was “inactive”.

Take `Cc1ccc(S(=O)(=O)Nc2ccc3c(c2)C(=O)N([C@H](C)CO)C[C@@H](C)[C@H](CN(C)S(=O)(=O)c2ccc(C)cc2)OCCCC[C@H](C)O3)cc1`: the cytotoxicity call with HSkMC and in the test with HepG2 was “inactive” throughout. Moreover, in the test on S. aureus RN4220, the growth inhibition call is “inactive”.

`CN1C[C@@H]2CN(C(=O)c3ccnn3C)C[C@H]2C1=O`: the cytotoxicity call in the test on HSkMC and with HepG2 was “inactive” in each case. Further, the growth inhibition call in the test with S. aureus RN4220 is “inactive”.

`C[C@H]1CN([C@@H](C)CO)C(=O)c2c(c3ccccc3n2C)-c2ccccc2CO[C@H]1CN(C)Cc1ccccc1C(F)(F)F`: the cytotoxicity call in the test with HSkMC and with HepG2 was “inactive” each time. For the same compound, the growth inhibition call with S. aureus RN4220 was “inactive”.

As for `CN1C(=O)c2cc(NC(=O)c3cccs3)ccc2OC[C@H]2O[C@@H](CC(=O)NCC(F)(F)F)CC[C@@H]21`, the cytotoxicity call in the test on HSkMC and with HepG2 was “inactive” each time. Also, in the test on S. aureus RN4220, the growth inhibition call is “inactive”.

`C[C@@H]1CCCCO[C@H](CN(C)CC2CCCCC2)[C@@H](C)CN([C@H](C)CO)C(=O)c2cc(NC(=O)c3ccccc3)ccc2O1`: the cytotoxicity call in the test on HSkMC and in the test on HepG2 was “inactive” throughout. Further, in the test with S. aureus RN4220, the growth inhibition call is “inactive”.

For `CCS(=O)(=O)N1CCc2ccc(N)cc2C1`, the cytotoxicity call in the test on HSkMC and with HepG2 was “inactive” throughout. Moreover, in the test with S. aureus RN4220, the growth inhibition call was “inactive”.

For the compound `O=C(O)CNC(=O)C(=O)O`, the cytotoxicity call in the test on HSkMC and with HepG2 was “active” each time. Also, in the test with S. aureus RN4220, the growth inhibition call was “inactive”.

For the compound `C[C@@H]1CN([C@H](C)CO)S(=O)(=O)c2ccc(C#CC3CC3)cc2O[C@@H]1CN(C)Cc1cccc(F)c1`, the cytotoxicity call in the test on HSkMC (human skeletal muscle cells) and with HepG2 was “inactive” in each case. In addition, the growth inhibition call with S. aureus RN4220 was “inactive”.
